Here are results for 55 compounds from ChEMBL document CHEMBL4888484, “Replenishing the malaria drug discovery pipeline: Screening and hit evaluation of the MMV Hit Generation Library 1 (HGL1) against asexual blood stage Plasmodium falciparum ,using a nano luciferase reporter read-out” (2022).

Each structure is given as a SMILES string. Screen size: about 150,000 compounds; about 540 (0.36%) showed an effect of 50% or more. Some of the results follow.

As a reminder, the % Inhibition is the relative decrease from the control value, in per cent.

For the test, the system named is Plasmodium falciparum. Nature of the test: Primary screen in NF54 nanoGlo assay, in single point, at 2uM, 72h; a lower Z score goes with more inhibition. In kind it is functional, Erythrocyte. To be noted: timepoint 72 hour.
As to `CC(C)c1cc(NC[C@@H](C(=O)O)c2ccccc2)ncn1`, the “% Inhibition” value is listed as -5% and the Z score is recorded as 0.96.
The corresponding values for `CC(C)c1ccc(S(=O)(=O)Nc2cc(C(=O)NCc3cccnc3)ccc2N2CCNCC2)cc1` are 5% and -0.46.
On to `CC(=O)c1cnc(NC(=O)CC2CCCCC2)s1`, for which the “% Inhibition” value is reported as 16% and the Z score is listed as -2.06.
Turning to `Cc1ccc(C(=O)N2CCO[C@H](c3cccnc3)C2)s1`, the “% Inhibition” value is -1% and the Z score came to 0.19.
Taken in the same sequence, the figures for `Cc1ccc2c(c1)OC1(C)CC2NC(=O)N1Cc1ccc(S(N)(=O)=O)cc1` (stereo not given) were -6% and 0.97.
Turning to `COc1ccc(Cl)cc1NC(=O)Cc1c(C)nc2nc(-c3ccc(C)cc3)nn2c1C`, the “% Inhibition” value was -8% and the Z score was determined as 1.17.
With `CN(C)C(N)=NC1CC1c1ccccc1` (stereo not given), the “% Inhibition” value was 5% and the Z score was -0.55.
As to `CC(=O)NC(C)(C)C[C@H](C)NC1(c2ccccc2C)CC1`, the “% Inhibition” value is -7% and the Z score is reported as 0.75.
On to `C[C@H]1CN(C(=O)NCc2ccon2)CCCO1`, for which the “% Inhibition” value is given as -18% and the Z score stood at 2.06.
Taken in the same sequence, the figures for `Cc1cc(CN2CCCC[C@H]2c2noc(C)n2)ccn1` were 15% and -1.89.
Consider `CCN(CC(=O)O)C(=O)C(C)=Cc1ccc(F)cc1`, for which the “% Inhibition” value is -6% and the Z score is on record as 0.75.
As to `COc1ccc(Cl)cc1-c1ccc(N(C)C)nn1`, the “% Inhibition” value is recorded as -5% and the Z score is recorded as 0.67.
As for `CN(C)C(=O)CN1C(=O)COc2ccc(C(=O)N3CCN(c4ccc(F)cc4)CC3)cc21`, the “% Inhibition” value was -3% and the Z score was 0.4.
In the case of `Cc1cc(C)n(C(=O)CCc2c[nH]c3ccccc23)n1`, the “% Inhibition” value is reported as -13% and the Z score worked out at 1.51.
In the case of `C[C@H](NC(=O)c1ccc(S(C)(=O)=O)cc1)C(C)(C)C`, the “% Inhibition” value is listed as -21% and the Z score was 1.89.
As to `CN1C[C@@H](NC(=O)c2ccccc2NCc2cccnc2)CC1=O`, the “% Inhibition” value was -13% and the Z score turned out to be 1.12.
As to `CC1CCN(CCCCNC(=O)c2cc(S(=O)(=O)N(C)C)ccc2N2CCCCC2)CC1`, the “% Inhibition” value is on record as 3% and the Z score was -0.25.
In the case of `CCOC(=O)c1ccc(C(=O)N2CCN(Cc3ccccc3)CC2)nc1C`, the “% Inhibition” value is listed as -12% and the Z score stood at 1.33.
For the compound `COC(=O)N1CCCC[C@H]1C(=O)N1CCc2[nH]c(-c3cccnc3)nc2C1`, the “% Inhibition” value was -1% and the Z score is given as 0.14.
Take `CCOC(=O)N1CCC2(CC1)N=C(c1ccc3c(c1)OCO3)C[C@@H](c1cccc(OCC)c1O)N2`: the “% Inhibition” value is -8% and the Z score worked out at 1.17.
As for `COc1cc(OC)c(NCc2noc(-c3ccccc3)n2)cc1Cl`, the “% Inhibition” value is reported as -15% and the Z score came out at 1.48.
Consider `OC(CNC(c1cc(F)ccc1F)C1CC1)C(F)(F)F` (stereo not given), for which the “% Inhibition” value was -9% and the Z score was 0.94.
As for `Cc1ncnc(N[C@@H](C)c2ccc(S(C)(=O)=O)cc2)c1C`, the “% Inhibition” value is on record as -3% and the Z score turned out to be 0.6.
Regarding `CN1CC[C@H](Nc2cccc(CN(C)C(=O)C(F)(F)F)c2)C1=O`, the “% Inhibition” value turned out to be 4% and the Z score was -0.64.
Consider `COC(=O)C1CCCC1C(=O)NCc1ncc[nH]1` (stereo not given), for which the “% Inhibition” value is -2% and the Z score is on record as 0.28.
As for `Cc1cc(C(=O)N2CCN3C(=O)CNC(=O)[C@@H]3C2)sc1-c1ccccc1`, the “% Inhibition” value was found to be 2% and the Z score is -0.21.
For `CCOCCN1CCN(C(=O)c2sc(C)nc2C)C[C@@H]1C`, the “% Inhibition” value is listed as -7% and the Z score came to 0.89.
Consider `Cc1n[nH]c([C@H]2CCN(Cc3ccccc3C)C[C@H]2N(C)C)n1`, for which the “% Inhibition” value is reported as -2% and the Z score is on record as 0.22.
Taken in the same sequence, the figures for `Fc1ccc(Cl)c(Cn2nnnc2C2CCOCC2)c1` were -9% and 0.96.
Regarding `COc1cccc(C(=O)N[C@@]2(C(F)(F)F)Nc3nc4ccccc4n3C2=O)c1`, the “% Inhibition” value was -2% and the Z score is listed as 0.2.
In the case of `Cc1csc(NC(=O)c2ccc(NC(=O)CCS(=O)(=O)c3cccs3)cc2)n1`, the “% Inhibition” value is -14% and the Z score is 1.55.
On to `Cc1cccc(CNC(=O)c2cc(Cc3ccccc3)n[nH]2)n1`, for which the “% Inhibition” value turned out to be 6% and the Z score is reported as -1.1.
Take `Cc1cccc(N2CCC(NC(=O)CCCn3nnnc3CN3CCOCC3)CC2)c1`: the “% Inhibition” value was -8% and the Z score is recorded as 1.05.
The corresponding values for `Cc1cc([C@H]2C[C@H]3CC[C@@H](C2)N3C(=O)Cc2c[nH]c(=O)[nH]c2=O)ccc1F` are -7% and 1.
With `O=C(NCc1ccncc1)NC1CCCCCCC1`, the “% Inhibition” value was 14% and the Z score was -1.9.
`O=c1c2ccccc2nc2c(-c3nc(-c4cccc(C(F)(F)F)c4)no3)cccn12`: the “% Inhibition” value was -7% and the Z score was 0.66.
Consider `Cc1cnc(NC(=O)c2oc(C)nc2C)c(Br)c1`, for which the “% Inhibition” value came out at 7% and the Z score is listed as -0.93.
Turning to `CCCCNc1ccc(C(=O)NCC(C)C)c(Cl)c1`, the “% Inhibition” value is reported as -6% and the Z score was 0.95.
As for `Cc1n[nH]c(C)c1CN(C)Cc1cc(C(C)C)on1`, the “% Inhibition” value is listed as -7% and the Z score is reported as 1.31.
For `CN(C)c1ccc(NC(=O)CCOc2ccccc2)cn1`, the “% Inhibition” value is reported as 16% and the Z score is on record as -1.81.
As for `C[C@@H]1CN(Cc2nnc(C3CC3)n2C)C[C@H](C)N1Cc1nnc(C2CC2)n1C`, the “% Inhibition” value worked out at 3% and the Z score is on record as -0.47.
For the compound `CC(=O)N1CCO[C@@H](CC(c2ccccc2)c2ccccc2)C1`, the “% Inhibition” value is recorded as -13% and the Z score was determined as 1.75.
Consider `Cc1ccc(CC(=O)N[C@@H]2C[C@H]2c2ccc(Cl)c(F)c2)cn1`, for which the “% Inhibition” value is -4% and the Z score is 0.53.
Taken in the same sequence, the figures for `CC(C)c1ncsc1C(=O)N1CCc2ncccc2C1` were -5% and 0.61.
For the compound `CC(C)Cc1cc(C(=O)N(Cc2ccsc2)C2CCCC2)on1`, the “% Inhibition” value is listed as -7% and the Z score was determined as 1.06.
As for `COCCN1CC2(CCC1=O)CCN(C(=O)Cc1ccc(F)cc1)CC2`, the “% Inhibition” value stood at 10% and the Z score is on record as -1.55.
Consider `CS(=O)(=O)n1cnc2cc(F)c(F)cc21`, for which the “% Inhibition” value is 38% and the Z score is -4.91.
Consider `CCCCCNC(=O)Nc1cc(S(C)(=O)=O)ccc1Cl`, for which the “% Inhibition” value is given as -3% and the Z score is reported as 0.43.
In the case of `CC1(C)C[C@@H]1NC(=O)NCc1cnc(C2CC2)o1`, the “% Inhibition” value was found to be 15% and the Z score was -1.69.
Take `Cc1ncccc1OCCOC(C)(C)C`: the “% Inhibition” value is -11% and the Z score is 1.75.
As for `O=S(=O)(CCC(F)(F)F)N1CCn2nc3c(c2C1)CCC3`, the “% Inhibition” value is 16% and the Z score is reported as -1.97.
In the case of `COc1cccc(CNC(=O)NC[C@H](c2ccc(F)cc2)c2c[nH]c3ccccc23)c1`, the “% Inhibition” value is -7% and the Z score is given as 1.28.
Consider `Cn1c(-c2cccc(C(=O)Nc3ccc(N4CCOCC4)cc3)c2)nc2cccnc21`, for which the “% Inhibition” value is on record as -5% and the Z score came out at 0.63.
Taken in the same sequence, the figures for `NC(=O)c1ccc(CN2CCC3CCCCC3C2)cc1` (stereo not given) were -8% and 1.38.
In the case of `N#Cc1c(N)c(C#N)c(-c2ccc3c(c2)OCO3)c2c1CCCC2`, the “% Inhibition” value stood at 0% and the Z score was determined as 0.02.
